Laboratory results from the supplement of paper PMC11417369.
The other results are listed elsewhere or left out.

system: PfAP2-HC AP2 domain (GST-tagged); experiment: gcPBM binding intensity (ln(normalized median fluorescence intensity)); higher = stronger DNA binding
Outline: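 After 1 h on an Agilent 4 × 180k array of primer-extended double-stranded 36-bp intergenic genomic probes and negative controls, bound GST-tagged P. falciparum DNA-binding domains were detected with Alexa488 anti-GST antibody and scanned at 488 nm. The domains had been expressed in E. coli, and binding took place in 1× PBS with 1% milk, 0.2 mg/ml BSA, 0.5% salmon testes DNA and 0.03% Triton X-100. Binding intensity is the highest Masliner-normalised natural-log median intensity across replicate spots of either probe orientation.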

Row | Sequence | gcPBM binding intensity (ln)
1 | AAAACAAATAGACACGCACACAAAAAAAAAAAAAAA [CACACA_site801] | 10.3
2 | ATATATATATATATATGTACATAAATATAAATTTAA [XGTACX_site8715] | 9.64
3 | TTTTAAAACAATGAGATTCCTTTCTTTTTTTCTTTT [CACACA_negctrl_site1320] | 9.35
4 | ATATTTATTTATATCATACACACTAATATGTATATT [CACACA_site7576] | 9.87
5 | TATCCCTTAGAATACACACCCATATGAGGGTGAACT [CACACA_site5610] | 9.52
6 | CTTAATGATAAATACATACACACAAAAAATAATATA [CACACA_site2577] | 9.87
7 | AAGAAAATGTAGAATTAGAAATAAATGAAGAAATGA [TGCATGCA_negctrl_site548] | 9.62
8 | TATATGTTTAATTTCACACACAAATATACATTTTAA [CACACA_site4171] | 9.79
9 | AGTAGATTTTTATTAGTGCATTTTATACTACAAAAA | 9.42
10 | CATTAGCATTTTATTACACACAATAAATTAGAAGTA [CACACA_site7837] | 9.66
11 | ATTCTTAAATGTGGTTGTACATATTATCACCTTTAA [XGTACX_site8188] | 9.65
12 | TTTTTAATTTTATATACACACATAAAAGATATGAAG [CACACA_site7470] | 9.33
13 | ATATTCTCTTAAATATGTACGTATGTATATATATAT [XGTACX_site5885] | 9.79
14 | CGCAAAACAATGATACGTACATATATATATATATAT [XGTACX_site5883] | 9.68
15 | AACGAAAACACTACGTGTACCAAACGTCCTACCAAC [XGTACX_site257] | 10.2
16 | AATAGTTAAATACATACATGCATTCATATAATATAT [TGCATGCA_site433] | 9.67
17 | AAGATAAAAATATGCACACATATATATATATATATA [CACACA_site404] | 10.1
18 | TAATTAAGAATATATAGTACATAGTTGAAAAACTTT [XGTACX_site6359] | 9.46
19 | AATGTACGCATATACACACACATAAATAGATACGTA [CACACA_site3406] | 10
20 | TTTTTTTTTTTTTTTTTTTTACGATATATTTTAAAA [XGTACX_negctrl_site401] | 8.57
21 | TAGATCATAACAATTGCACACATTTGCATTTATATT [CACACA_site1562] | 9.92
22 | TTTTTACTTATTTATTATGTACAATTTCTTCTTTCT [CACACA_negctrl_site264] | 9.76
23 | TTCAAAAAATATATCTGTACAAATTATGTAGATGAA [XGTACX_site5522] | 9.44

Row | Sequence | gcPBM binding intensity (ln)
24 | AGTATTTTGTTTATCACACATATTGGAATTTTCAAT [CACACA_site4686] | 9.73
25 | AAAATAATTCAATGTAGTACAATACAAATTGAGAGA [XGTACX_site5991] | 9.8
26 | AAAATTATACACACACGTACATATAAATAGAAATAT [XGTACX_site1753] | 10.3
27 | TTTGTTGGTATGGTTACACACATTTAGGAAATAAAA [CACACA_site1411] | 9.65
28 | TCTTATAAATTAAATATAAAAAAAAAAAAAAAAAAA [XGTACX_negctrl_site77] | 8.86
29 | TTTTTATAACAGCTTAGTACATATAAGAATTCTTGC [XGTACX_site5890] | 9.47
30 | GACCCCATATACATATGTACATACATAATATATATA [XGTACX_site1817] | 9.89
31 | AAATGGACAGTATAAAAATGGAGAATATAAAAATTT [CACACA_negctrl_site889] | 9.72
32 | TATATATAAAAAAAAAGTACATATAATATAATATTT [XGTACX_site7902] | 9.61
33 | GGTGTTTTTCACAGATGTACACAAATAAAAAAGAAA [XGTACX_site4454] | 9.61
34 | CCTTTTTATTTTTGTAGTACTACATATACATATCTG [XGTACX_site7791] | 9.82
35 | AAAAAAAAAAAAAATAAATAAATAAATAAATATATA [GTGCAC_negctrl_site382] | 9.34
36 | ATATTAAAAAAATATAAACACACAAAAAAAAAATAT [CACACA_site8283] | 9.91
37 | TATTCAAAGAAAAACTGTACGTGTAGCAAACGTCAT [XGTACX_site7713] | 9.55
38 | AAAATAATGAAATGAAAAAAAAAAATTTAGATTCTA [CACACA_negctrl_site1385] | 9.47
39 | AAAAAAAAAAAAAATACACACATATTTTATAGGGGA [CACACA_site3261] | 9.78
40 | TATTTTTTGAAAAGTTCACACATCCAACTCGAGTTG [CACACA_site4412] | 9.62
41 | TTATATATTTTTAGGTGTACTTTTTTTTTTTTTTTT [XGTACX_site8164] | 9.54
42 | GTCATATATTTATGTACACACATATATATATTTATA [CACACA_site4911] | 9.86
43 | CTAATTGTTATTTTGTGTACTTATCATTCGAAATAT [XGTACX_site7963] | 9.7
44 | AAAAAACAAATAAGTAAACACACATATATAATATAT [CACACA_site8830] | 10.3
45 | TAGATGTAAGTACATACACACATATATAAATAAATA [CACACA_site8528] | 9.95
46 | ATATATATTTTAATTACACACAAAAAAAAAAAAAAA [CACACA_site4778] | 9.38

Row | Sequence | gcPBM binding intensity (ln)
47 | AGGATATATATATTCACACACACATGGAAATATATA [CACACA_site383] | 10.2
48 | ATATATATTTTATATTGTACTTATTATTTTTAGGGC [XGTACX_site723] | 9.53
49 | TATGAATATCTATACACACACATATAAATACACGCT [CACACA_site6853] | 10.3
50 | GTATAATTGGAAATTACACACCTTAGAATGTAACAT [CACACA_site4059] | 9.68
51 | ATTATAATATATATATGTACATATATATATAATACT [XGTACX_site5092] | 9.66
52 | TATAATATACTATGTGGTACATATATATATTTATAG [XGTACX_site4556] | 9.77
53 | ATATATAATATTGGTGGTACAAGGGTATTTTATATT [XGTACX_site8215] | 9.84
54 | TCATTTATTTTTCTTTGTACACAAAAGTTTTTATGT [XGTACX_site690] | 9.81
55 | CATATGTTATATGTAGTGCATTACTATAGGATTTAT [GTGCAC_site9860] | 9.6
56 | TATTTTGCAAAATGTGCATGTTGTGTATTATGTGAC [TGCATGCA_site59] | 9.77
57 | TATTTTTAATTTTTTAATGGTTTAATATTTTTATAT [CACACA_negctrl_site1186] | 9.56
58 | TGGTATGCAATATTGGTGCGTATATATTTTAAAGGG | 9.62
59 | TATTCTAAGATAAGTGGTACTTATATATAATATATA [XGTACX_site8316] | 9.27
60 | TCTTTAGCTTCTTCTTTTTTTTTTTTTTTTTTTTTT [XGTACX_negctrl_site518] | 9.51
61 | ATATATATATATATATGTACATAAACATATATATAT [XGTACX_site1064] | 9.68
62 | ATCCGTGGGTGAAATACACACATGATAATGTGAATG [CACACA_site4662] | 9.68
63 | ATAAATGAACAAGTGGCACACACACCGTATAACTAA [CACACA_site9047] | 10.4
64 | TGAAAAATATAAGGTTGTACTTACATCGGGAATAAT [XGTACX_site4701] | 9.73
65 | AATTATGTGTGTCAATGTACACGATTTACATAATAT [XGTACX_site5150] | 9.84
66 | AATATATGGTTTCTTGATATTAAATTCAATTTAATG [CACACA_negctrl_site69] | 9.51
67 | AATCTTTGTAATAAAAGTACATTAATTTTATTAATA [XGTACX_site8325] | 9.37
68 | ACACATACAACGTGGTGTACAAATAATTATAATCAA [XGTACX_site2287] | 10.1
69 | TAAGTATATATATTTACACACATTTGTTTTTTTTTA [CACACA_site3784] | 9.81

Row | Sequence | gcPBM binding intensity (ln)
70 | TTTTAAATACTTTATTGTACATTATATATATATATA [XGTACX_site7021] | 9.68
71 | AAAAAAAAAAAAAAAAGTACATATAATAAATAATGA [XGTACX_site7931] | 9.52
72 | TATATCTTAATATTTACACACATGCGCACCCATAAA [CACACA_site5349] | 9.95
73 | ATATAAACACTGAATGCATGCACATATATATATATA [TGCATGCA_site940] | 10.6
74 | GGGGGGGGAGGGTGAATACACACGTAATAATCATAA [CACACA_site1716] | 9.69
75 | TTTTTTTTTACTAACTGTACTAAAGAAAAAAAAGGG [XGTACX_site3519] | 9.32
76 | ATAAAGGAATTTTATACACACAACATATATATATAT [CACACA_site2861] | 9.76
77 | ATGTGTATATGTGTGGGTACTTAATTTTTTTCTTTA [XGTACX_site5351] | 10
78 | CGTATTATTATATAAACACACAAGGGGGCATGTATA [CACACA_site745] | 9.92
79 | AATTCTGGCAAAATAACACACACATATATTTTATAT [CACACA_site9064] | 10.1
80 | GTTATAATTGAACTAGTGCATAAATATATTTTAATT [GTGCAC_site9851] | 9.55
81 | TATCTTTTTTTTAATACACACAAATATATGAAAGTA [CACACA_site4161] | 9.52
82 | AGTATAACTTTTGCGCGTACACACATTTATCCTCTT [XGTACX_site429] | 10.4
83 | TTTGAATACTGAATGGTGCAAATTGTTCTCCCCATG | 9.44
84 | TATATTAAAATAATCACACACATCAATTAATGGTAA [CACACA_site1234] | 10
85 | TATAATAATATTTACACACGCATATGTTATATATAT [CACACA_site1477] | 9.79
86 | TACAAATGCGTATGTCAATATATGGAGAAATAAATA [TGCATGCA_negctrl_site290] | 9.56
87 | TGTATATGGTTTGTGCAAAAATTTATTAATGTGTAA [TGCATGCA_negctrl_site374] | 9.71
88 | ATTTGTATATACATATGTACACATGTAGGCTCATAA [XGTACX_site1709] | 9.79
89 | TTTCGTAAACTTTATGCACACACATATACATATTTC [CACACA_site8146] | 10.2
